The campaign covered roughly 72,000 compounds. About 710 (0.99%) were called active. Inconclusive means that the source gave no clear call. Such entries were picked first, then a sample of the others. Calls follow the shape of the dose curve; as a rule, active = well fitted inhibition curve with a large enough effect; inconclusive = small, poorly fitted or top-dose-only effect; inactive = no such curve, though single readings can be large or run the other way. No potency is given beside an inconclusive call; the fits are too rough.
Experiment: qHTS Assay for Inhibitors of the ERK Signaling Pathway using a Homogeneous Screening Assay; also: nearly all actives have a fitted effect of over 55% in size
Settings: HEK293-V1b, vasopressin-stimulated pERK AlphaScreen; activity, negative = inhibition: at 57.5 µM (top of the series) unless noted
How it was run: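 Overnight-seeded V1b-HEK293 cells in 1% FBS got compound, then vasopressin (25 nM final, 5 min, 37C), then lysis buffer. AlphaScreen detection of phospho-ERK; activity normalized to basal and full-stimulation controls.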
For `COC(=O)c1c(-c2ccc(OC)c(OC)c2)csc1N`, the Potency was inconclusive [inhibitor, partial curve]. With `CCn1c(Cn2nnc(-c3ccccc3)n2)nnc1SCC(=O)Nc1cccc(C(C)=O)c1` the Potency was inconclusive [inhibitor, partial curve]. For `N#CC1=C(N)N2C(=C(C#N)C13CCCCC3)SC1CCCCC12O` (stereo unspecified), the Potency was inconclusive [inhibitor, partial curve]. For `COc1ccc(N2CCn3c2nc2c3c(=O)n(CCCc3ccccc3)c(=O)n2C)c(OC)c1`, the Potency was active: 12.6 µM. With `CCCc1nc2c(C)cc(-c3nc4ccccc4n3C)cc2n1Cc1ccc(-c2ccccc2C(=O)O)cc1` the Potency was inconclusive [inhibitor, single point]. With `COc1ccccc1CNc1cc(-c2cccc(NS(C)(=O)=O)c2)ncn1` the Potency was inconclusive [inhibitor, full curve]. With `O=c1[nH]c(C2CCCN(S(=O)(=O)c3ccccc3)C2)nc2c1nnn2Cc1ccccc1F` (stereo unspecified) the Potency was inconclusive [inhibitor, full curve, poor fit]. With `N=c1cc(C2(O)CCCCC2)n2c(nc3ccccc32)s1` the Potency was inconclusive [inhibitor, single point]. For `c1ccc(-c2cc3c(-n4cccc4)ncnc3o2)cc1`, the “activity, negative = inhibition” value was inactive: 17.1%. With `Cc1[nH]nc2c1C(=O)CC(C)(C)C2` the Potency was inconclusive [inhibitor, partial curve]. For `O=C(Nc1ccc2c(c1)OCCO2)C1CCN(S(=O)(=O)c2cccs2)CC1`, the Potency was inconclusive [inhibitor, partial curve]. For `Cn1c(NCc2c[nH]c3ccccc23)nc2ccccc21`, the Potency was inconclusive [inhibitor, single point]. In the case of `CC(=NCc1ccco1)c1c(C)[nH]n(-c2nc3ccccc3s2)c1=O`, the “activity, negative = inhibition” value is reported as inactive: -15.6%. With `Cc1cc(NC(=O)C2CCCCC2C(=O)O)no1` (stereo unspecified) the “activity, negative = inhibition” value was inactive: -0.238%. With `C=CCC(O)CC1C2C(CC(O)CC=C)C3C1C3C2OC(C)(C)C` (stereo unspecified) the activity, negative = inhibition was inactive: 4.57% [at 11.5 µM]. For `CCOc1ncccc1C(=O)OCc1ccc(C(=O)OC)o1`, the Potency was inconclusive [inhibitor, full curve]. With `Cc1ccc2nc(-c3ccc(NC(=O)CN4CCN(C(=O)c5ccco5)CC4)cc3)sc2c1` the Potency was inconclusive [inhibitor, single point]. With `CN(C)Cc1ccccc1-c1nc(N2CCOCC2)c2ccccc2n1` the “activity, negative = inhibition” value was inactive: 13.9%. With `Cc1ccc(NCc2nnc(SCC(=O)c3ccccc3)o2)c(C)c1` the Potency was inconclusive [inhibitor, single point]. In the case of `Cn1c(=O)c(-c2cc(F)cc(F)c2)nc2cnc(Nc3ccccc3)nc21`, the Potency is reported as inconclusive [inhibitor, partial curve]. For `O=S(=O)(Nc1nc2ccccc2nc1N1CCN(c2ccccn2)CC1)c1ccc(Cl)cc1`, the Potency was inconclusive [inhibitor, partial curve]. With `CNC(=O)[C@H]1O[C@H](n2cnc3c(NCc4cccc(I)c4)ncnc32)[C@@H](O)[C@@H]1O` the Potency was inconclusive [inhibitor, partial curve, poor fit]. With `C=CCN1C(=Nc2cccnc2)SCC1(O)c1ccc(C)cc1` (stereo unspecified) the Potency was inconclusive [inhibitor, single point]. In the case of `COC(=O)c1ccc(OCC2c3cc(OC)c(OC)cc3CCN2C(=O)c2ccco2)cc1` (stereo unspecified), the Potency is reported as inconclusive [inhibitor, partial curve]. For `CC(C)c1nc(-c2c(N)n(C)c(=O)n(C)c2=O)sc1C(=O)C(C)(C)C`, the Potency was inconclusive [inhibitor, partial curve, poor fit]. For `COc1cccc(-c2nccc(NCCc3c[nH]c4ccc(OC)cc34)n2)c1`, the Potency was inconclusive [inhibitor, single point]. In the case of `CC(Cc1ccc(O)c(O)c1)C(C)Cc1ccc(O)c(O)c1` (stereo unspecified), the Potency is reported as inconclusive [inhibitor, single point]. For `N#Cc1sc2nc3c(c(-c4ccco4)c2c1N)CCCC3`, the “activity, negative = inhibition” value was inactive: 80%. For `Cc1ccc(C)n1/N=C1/NC(=O)CS1`, the Potency was inconclusive [inhibitor, single point]. For `COC(=O)c1ccc(C23CC4(C2)[C@H](CN(Cc2cccnc2)[C@@H]4c2ccccc2)C3c2ccc(Cl)nc2)cc1` (stereo partly specified), the “activity, negative = inhibition” value was inactive: -2.78%. With `O=C1C2=C(Nc3ccccc3SC2c2ccco2)c2ccccc21` (stereo unspecified) the Potency was inconclusive [inhibitor, single point]. In the case of `COc1ccc(-c2[nH]nc3c2C(c2ccccc2OC(=O)N2CCOCC2)C(C#N)=C(N)O3)cc1` (stereo unspecified), the Potency is reported as inconclusive [inhibitor, single point]. In the case of `CCOc1ccc(NC(=O)c2ccc(F)c(S(=O)(=O)N3CCN(c4ccccn4)CC3)c2)cc1`, the Potency is reported as inconclusive [inhibitor, partial curve]. For `COC(=O)c1ccc2c(c1)N(Cc1nc(-c3cccc(Cl)c3)oc1C)C(=O)C1CCCN21` (stereo unspecified), the Potency was inconclusive [inhibitor, partial curve]. For `COc1cc(C2=Nc3c(c(C)nn3-c3ccccc3)P(=O)(N3CCOCC3)O2)cc(OC)c1OC` (stereo unspecified), the Potency was inconclusive [inhibitor, partial curve, poor fit]. In the case of `CCCc1ccc(Oc2cn[nH]c2-c2ccc(O)cc2O)cc1`, the Potency is reported as inconclusive [inhibitor, single point]. With `c1ccc(CN2CCC3(CCCc4ccccc43)CC2)cc1` the Potency was inconclusive [inhibitor, single point]. In the case of `CCCCn1c(SCC(=O)c2ccc3c(c2)OCCO3)nnc1-c1ccco1`, the Potency is reported as inconclusive [inhibitor, single point]. With `COc1cc2c(cc1OC)C(c1ccsc1)CC(=O)N2` (stereo unspecified) the Potency was inconclusive [inhibitor, partial curve]. With `CC(C)(C)Nc1nc(Oc2ccc(=O)n(-c3ccccc3)n2)nc(N2CCOCC2)n1` the Potency was inconclusive [inhibitor, single point]. In the case of `CCCC(=O)Nc1cnc(NC(=O)c2cccc(F)c2)cc1C`, the “activity, negative = inhibition” value is reported as inactive: -19.3%.
% is scaled to controls: 0 for no effect and ±100 for the full control effect; potency is read from the fitted curve at half-maximal effect; tags tell the direction and shape of the fitted curve.
